Test results: PubChem BioAssay AID1240 (Sanford-Burnham Center for Chemical Genomics, 2008)
The campaign covered roughly 50,000 compounds. About 800 (1.6%) showed an effect of 50% or more. This is one part of the list.

target: Bcl-2-like protein 10 (Homo sapiens) (UniProt Q9HD36); assay: TR3 peptide-Bcl-B binding displacers, biochemical primary FP assay, phenotype converters (AID 1240); conditions: GST-Bcl-B / FITC-TR3 peptide fluorescence polarization; stronger effect = higher value; compound at 3.75 mg/L;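 note: 0% = Bcl-B with tracer peptide and DMSO and 100% = tracer peptide lacking Bcl-B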
Chain of UniProt Q9HD36 (Q9HD36 whole entry, looked up): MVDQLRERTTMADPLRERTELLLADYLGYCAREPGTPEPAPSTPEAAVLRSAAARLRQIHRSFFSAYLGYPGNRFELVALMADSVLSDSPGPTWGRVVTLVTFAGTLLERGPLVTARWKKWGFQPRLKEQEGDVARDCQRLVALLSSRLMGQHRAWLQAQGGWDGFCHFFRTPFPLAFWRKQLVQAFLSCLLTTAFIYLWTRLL

In order of falling displacement:
1. C/C(=C\c1ccccc1Cl)C(=O)c1c(C)cc(C)[nH]c1=O  42%
2. CCN(CC)c1ccc(NS(=O)(=O)c2ccc(NC(C)=O)cc2)cc1  41%
3. COc1ccc(-c2cc(-c3ccccc3)[o+]c(-c3ccccc3)c2)cc1  24%
4. N#C/C(=C\c1c[nH]c2ccccc12)c1ccc([N+](=O)[O-])cc1  18.7%
5. CCOc1cccc(-c2nnc(NC(=O)c3ccco3)s2)c1  14.6%
6. CCOc1ccc2ccccc2c1C=C1C(=O)NC(=S)NC1=O  14.5%
7. CC1=NN(c2ccc(C)cc2)C(=O)/C1=C\c1ccc2c(c1)OCO2  14.2%
8. COc1ccc(C(=O)/C=C/Nc2ccccc2Br)cc1OC  13.6%
9. COc1ccc(-c2ccc(/C=C3/C(=O)NN(c4ccc(C)c(Cl)c4)C3=O)o2)c([N+](=O)[O-])c1  13.1%
10. CCc1ccc(N2C(=O)/C(=C/c3cc(C)n(-c4cccnc4)c3C)C(=O)NC2=S)cc1  12.1%
11. O=C(Nc1cccc(C(F)(F)F)c1)c1ccccc1[N+](=O)[O-]  11.9%
12. COc1ccc(C(=O)NCC(C)c2ccccc2)cc1OC (stereo not drawn)  11.9%
13. O=C1C(=O)N(c2nccs2)C(c2cccc(Br)c2)/C1=C(\O)c1ccc(Cl)cc1 (stereo not drawn)  11.3%
14. Cn1c(=O)c2c(ncn2CC(=O)Nc2nc(-c3ccccc3)cs2)n(C)c1=O  11.2%
15. O=C(Nc1cc(C(F)(F)F)ccc1Cl)c1ccc2ccccc2n1  11.2%
16. O=C(Nc1ccc(NC(=O)c2cc3ccccc3o2)cc1Br)c1ccccc1  10.9%
17. COC(=O)C1=C(C)NC2=C(C(=O)c3ccccc32)C1c1ccc(-c2ccc([N+](=O)[O-])cc2C)o1 (stereo not drawn)  10.7%
18. COC(=O)c1c(NC(=O)c2cccc(Br)c2)sc(C)c1C  10.6%
19. O=C(Nc1ccccc1C(=O)N1CCCCC1)c1ccccc1Cl  10.3%
20. CC(=O)Nc1ccc(S(=O)(=O)N(c2ccccc2F)S(=O)(=O)c2ccc(NC(C)=O)cc2)cc1  10%
21. COc1ccc(/C=C2\C(=O)NC(=S)N(c3cccc(Br)c3)C2=O)cc1[N+](=O)[O-]  9.4%
22. COc1cccc(/C=C2\SC(=S)N(Cc3ccccc3)C2=O)c1OC  8.6%
23. C=CCc1cccc2cc(C(=O)Nc3ccc(CC)cc3)c(=O)oc12  8.6%
24. Cn1cnnc1Sc1cc(N2CCCC2)ccc1[N+](=O)[O-]  8.5%
25. CC(=O)NC(NC(C)=O)c1ccc(N(C)C)cc1  8.3%
26. CC(=O)Nc1ccc(NC(=S)NC(NC(=O)c2ccc(C)cc2)C(Cl)(Cl)Cl)cc1 (stereo not drawn)  7.6%
27. O=C1NC(=Nc2ccccc2)S/C1=C/c1cccc(OC(=O)c2ccccc2)c1  7.5%
28. Cc1ccc(NC(=O)COc2ccccc2)cc1[N+](=O)[O-]  6.5%
29. COc1ccc(OC)c(NC(=O)Cc2ccccc2OC)c1  5.8%
30. CC(NC(=O)c1ccccc1)c1ccc(Br)cc1 (stereo not drawn)  5.7%
31. COC(=O)c1c(NC(=O)/C=C/c2cccc([N+](=O)[O-])c2)sc2c1CCCC2  5.4%
32. Cc1cc(Cl)cc(C)c1OCCN1CCCC1  4.5%
33. Cc1cc(C)cc(NC(=O)c2sc3ccccc3c2Cl)c1  4.2%
34. Cc1ccc(NC(=O)Cc2nnc(NC(=O)Nc3ccc(Cl)cc3)s2)cc1  4%
35. CN1C(=O)/C(=C\c2ccc(-c3ccc(F)c(Cl)c3)o2)SC1=S  3.9%
36. CCN(CC)c1ccc(C2Nc3ccccc3NC3=C2C(=O)CC(c2ccc(OC)cc2)C3)cc1 (stereo not drawn)  3.5%
37. Cc1ccc(C(=O)N/C(=C\c2ccc(-c3cc(Cl)ccc3Cl)o2)C(=O)NCc2cccnc2)cc1  3.5%
38. CC(=O)Oc1ccc2oc(C)c(C(=O)O)c2c1  3.5%
39. COc1ccc(C2=Nc3ccccc3NC(C)(c3ccc(OC)cc3OC)C2)c(OC)c1 (stereo not drawn)  3%
40. C=CCn1c(SCC(=O)NCCCO)nc2sc3c(c2c1=O)CCCC3  2.5%
41. COc1ccccc1NC(=O)C1=C(C)NC2=C(C(=O)CCC2)C1c1ccc(Cl)cc1 (stereo not drawn)  2.4%
42. CC(NC(=O)CN(c1cccc(Cl)c1)S(C)(=O)=O)c1ccccc1 (stereo not drawn)  2.3%
43. COc1ccccc1OCC(=O)NCc1ccc2c(c1)OCO2  1.4%
44. COc1ccc(C2CC(C(F)(F)F)n3nc(C(=O)NCCc4ccccc4)c(Cl)c3N2)cc1OC (stereo not drawn)  1.1%
45. CCCOc1ccc(/C=N/NS(=O)(=O)c2ccc3ccccc3c2)cc1OC  1%
46. CC1CCN(C(=O)CSc2nc3ccccc3[nH]2)CC1  1%
47. COc1cccc(/C=N/NC(=O)/C(=C/c2ccc(N(C)C)cc2)NC(=O)c2ccccc2)c1O  0.9%
48. COc1ccccc1C1Nc2ccccc2NC2=C1C(=O)CCC2 (stereo not drawn)  0.9%
49. O=C1N=c2ccc(Cl)cc2=C1c1sc(=O)[nH]c1O  0.8%
50. CC(c1ccco1)N(C(=O)COc1ccc(Cl)cc1Cl)c1ccccn1 (stereo not drawn)  0.4%
51. CS(=O)(=O)N(Cc1ccccc1)c1ccc(C(=O)N2CCOCC2)cc1  0.1%
52. Cc1nnc(NC(=O)c2cc(Cl)cc(Cl)c2)s1  -0.3%
53. COc1cc(/C=N/NC(=S)Cc2ccccc2)cc(OC)c1OC  -0.4%
54. COc1cc2c(cc1OC)S(=O)(=O)OC(C)=C2  -0.5%
55. CCOc1ccc(N(CC(=O)Nc2ccc(OC)cc2)S(=O)(=O)c2ccc(SC)cc2)cc1  -0.6%
56. CC1(C)CC2(CCO1)NN=C(c1ccccc1)S2 (stereo not drawn)  -0.7%
57. Cc1ccccc1S(=O)(=O)Nc1c(C)n(C)n(-c2ccccc2)c1=O  -0.9%
58. c1ccc(Cn2c(COc3ccccc3)nc3ccccc32)cc1  -1%
59. COc1ccc(CNCc2ccc3ccccc3c2)cc1OC  -1%
60. CCOc1ccc(NC(=O)CN(CCc2ccccc2)S(=O)(=O)c2ccccc2)cc1  -1.1%
61. COc1ccc(C2/C(=C(/O)c3ccccc3)C(=O)C(=O)N2c2cccc(C)c2)c(OC)c1 (stereo not drawn)  -1.4%
62. O=[N+]([O-])c1ccc2nc(SCc3cccc4ccccc34)sc2c1  -1.5%
63. COc1ccccc1/C=N/NC(=O)CSc1ccccn1  -2.1%
64. O=C(CSCc1ccccc1)Nc1nccs1  -2.5%
65. O=C(CSc1nnc(-c2ccncc2)n1-c1ccccc1)c1ccc(F)cc1  -2.7%
66. O=C1CCCc2c1n(CC(O)CO)c1ccccc21 (stereo not drawn)  -2.7%
67. Cc1ccc(N(CC(=O)NC(C)c2ccccc2)S(=O)(=O)c2ccc(F)cc2)cc1 (stereo not drawn)  -2.8%
68. COc1cc(NC(=O)c2ccccc2Br)c2ncccc2c1  -3.3%
69. COc1cc(NC(=O)COc2ccc(Br)c(C)c2)c(OC)cc1Cl  -3.5%
70. CC(C)(C)NC(=O)c1cccc(NC(=O)c2cccs2)c1  -3.6%
71. CCn1c(SCCc2ccccc2)nc2ccccc2c1=O  -4.3%
72. COc1ccc(OC)c(CN2CCN(S(=O)(=O)c3ccc(C)cc3)CC2)c1  -4.6%
73. CCNC(=S)N(CCc1ccccc1)C1CC(=O)N(c2ccc(F)cc2)C1=O (stereo not drawn)  -4.9%
74. CCOc1ccccc1/C=C(/NC(=O)c1ccccc1)C(=O)N(CC)CC  -5%
75. O=C1Nc2ccccc2/C1=N\N=C\c1ccccc1[N+](=O)[O-]  -5%
76. COCCNC(=O)CN(c1cccc(OC)c1)S(=O)(=O)c1ccccc1  -5.1%
77. COc1cc(C(=O)N2CCN(C3C4CC5CC(C4)CC3C5)CC2)cc(OC)c1OC (stereo not drawn)  -5.1%
78. CCc1c(C)nc2c(Cl)cccc2c1SCC(=O)O  -5.6%
79. COc1cc(/C=c2\sc3nc4ccccc4n3c2=O)cc(Cl)c1OCc1ccccc1F  -5.8%
80. COc1ccc2[nH]cc(CCN=C3SCC(=O)N3C)c2c1  -5.8%
81. CC(=O)Nc1cc(Oc2cccc(C)c2)cc([N+](=O)[O-])c1  -6.1%
82. COc1cc(NC(=O)c2ccc(Cl)c([N+](=O)[O-])c2)c(OC)cc1Cl  -6.1%
83. COc1ccc(/C(N)=N/OC(=O)Cc2ccc(Cl)cc2)cc1  -6.7%
84. CN(C)c1cccc(C(=O)Nc2ccc(Br)cc2F)c1  -7%
85. COC(=O)c1cccc2c1NC(=O)C2=O  -7.2%
86. Fc1ccccc1N1CC(c2ccccc2)C(c2cccs2)=N1 (stereo not drawn)  -7.4%
87. CC(=O)c1c(C)oc2c1cc(O)c1c2c(-c2ccccc2)nn1-c1ccccc1  -7.5%
88. COc1ccccc1C1/C(=C(/O)c2ccccc2)C(=O)C(=O)N1CC1CCCO1 (stereo not drawn)  -8.4%
89. COc1ccc(-c2[nH]ncc2/C=N\NC(=O)c2ccccc2I)cc1  -8.4%
90. Oc1ccc(/C=N/Nc2ncc(Br)cn2)c(O)c1  -9.3%
91. COc1ccc(CC2S/C(=N\N=C\CCc3ccc(C)o3)NC2=O)cc1 (stereo not drawn)  -9.6%
92. CC(C)(C)c1ccc(-c2nc(-c3cccc([N+](=O)[O-])c3)no2)cc1  -9.6%
93. CC1(C)CC(=O)C(C(C2=C(O)CC(C)(C)CC2=O)c2ccccc2OCc2ccccc2)C(=O)C1 (stereo not drawn)  -9.7%
94. CC(C)C(C(=O)O)N1C(=O)/C(=C/c2ccc(C(=O)O)cc2)SC1=S (stereo not drawn)  -9.9%
95. C#CCSc1nc2ccccc2n1C(=O)/C=C/c1ccco1  -10.8%
96. Cc1sc(N/N=C/c2ccccc2)nc1-c1ccccc1  -11.2%
97. CSc1ccc(S(=O)(=O)N(CC(=O)Nc2ccccc2Br)c2ccc(C)cc2)cc1  -11.5%
98. O=C(Nc1ccccc1C(F)(F)F)c1ccc(-c2ccc(Cl)cc2Cl)o1  -12.2%
99. CCC(=O)c1ccc(N2CCCC2)c(F)c1  -13.5%
100. O=C(CSc1nc2ccccc2o1)NC1CCCC1  -14%
101. C/C(=C\c1ccccc1)c1nc(-c2ccccc2O)n(-c2ccccc2)n1  -15.4%
102. NS(=O)(=O)c1ccc(Oc2ccc([N+](=O)[O-])cc2)cc1  -15.5%
103. CCCN1CCC(=NNC(=O)c2c[nH]c3ccccc23)CC1  -17%
104. O=C1/C(=C/c2ccc(O)c([N+](=O)[O-])c2)SC(=S)N1c1ccc(Br)cc1  -20.5%
105. O=C(NC(=S)Nc1ncn[nH]1)c1ccccc1  -21.2%
106. COc1cc(CN2CCN(Cc3cccc(F)c3)CC2)cc2c1OCO2  -33.3%
107. CCN1C(=O)/C(=C\c2cc(Br)ccc2OCCOc2cccc(OC)c2)SC1=S  -58.2%
108. O=C1NC(=O)N(c2ccc(Cl)cc2)C(=O)/C1=C/c1ccc(N2CCCCC2)o1  -88.2%
